Source: publication PMC12136788
The other results are listed elsewhere or left out.

B1: chr4:99962207:99962208:+_ENSG00000164024_ENST00000296411|hu_mus|motif|central (ssRNA)
RNA: GGGAGUUCUACAGUCCGACGAUCCCCAGCAGCAAUGUCCAAAACUUCUCUGGCAAGCCUACACACGAGUCGCAUCCCUUCGGUAUCUUCAGAUGAGAGUAACUUAAUCUGAGAGGUACCUUUAAGAGCCUGCUCCGAUUCAGACAACAGAGGAUUGAGCAUCA
B2: chr4:140556289:140556290:+_ENSMUSG00000036622_ENSMUST00000037055|mus_mus|mus_mus_mus_hu_False|1_1 (ssRNA)
RNA: GGGAGUUCUACAGUCCGACGAUCGAUGGAGCUCACCAGGCCCCCUUUUGCCGUGCAGAACCCUGUGCGGGUCACCACUGCCAGGACGUGCGGUCCCACAUAGGCCCGGGCCUGCAAGAUGAGGGUCCCGCAGAAGAGGGUGUGCAACAGAGGAUUGAGCAUCA
B3: chrX:40531158:40531159:-_ENSG00000180182_ENST00000324817|hu_mus|FALSE|FALSE (ssRNA)
RNA: GGGAGUUCUACAGUCCGACGAUCAUGCAGAUUUCCUGGAGACUGUGUGUGCAUCAUAGAGGGGGACUGAUUAACUGUGCUGUGAUAGGAUGUAGGGGGUGAAGUAAGAGGGUAAGCGCCUGAUGUCCCUGGCUGCUUUGGAAACAACAGAGGAUUGAGCAUCA
B4: chr16:3748964:3748965:+_ENSMUSG00000022529_ENSMUST00000023176|mus_hu|FALSE|FALSE (ssRNA)
RNA: GGGAGUUCUACAGUCCGACGAUCUUCAGUGCAGUCCACACCCAUACACAGUCUUUCAGCUGCAUGUAUUCUCUGGUGCCUAAUUAGGUUUGAGUUGUUAGAGAAAUUUUUGCCACACAAGGGACAUAAAUGGAGUUUCUUUGGCAACAGAGGAUUGAGCAUCA
B5: chr16:47694578:47694579:+_ENSG00000102893_ENST00000566044|hu_hu|motif|central (ssRNA)
RNA: GGGAGUUCUACAGUCCGACGAUCUUCAGGAGCACUAGGGGUGCUGCUUUGCCGUUUGACUUUUGAAUGUUUGGGAGGUUCGGGUUCCUCAAAACUCUUAAAUUCUGGAAGCUCUUCUGUGUCACUGAUUCGUAGGAAAUCAAGCAACAGAGGAUUGAGCAUCA
B6: chrX:35795285:35795286:-_ENSMUSG00000016534_ENSMUST00000061755|mus_hu|FALSE|FALSE (ssRNA)
RNA: GGGAGUUCUACAGUCCGACGAUCAUUCAUCUGCCAUUUUGCAUAAAGGCAAGUGGCAUUUUCUGAAUCUGUCAAAUUAAGUUCCAAUGCAUAAGACCGCACAGCUCCCAGGACUAGGCAGACCAGAACGAGCCCUGAGCCCGGCAACAGAGGAUUGAGCAUCA
B7: chr17:64801638:64801639:+_ENSG00000154229_ENST00000413366|hu_mus|hu_hu_hu_mus_False|8_18 (ssRNA)
RNA: GGGAGUUCUACAGUCCGACGAUCUAUAUAUAUAUAUACAUAUGUACACAUAUAUAGUAAAACCCUAGUUAAACGUGUAAAGUAGCCAUUCAUUUUUAAAAUUACAUCUACAUUAAAAAAGUAAUCUAUCUGAUACAGUGCCAGCAACAGAGGAUUGAGCAUCA
B8: 109382212_109382332_5403_CDS_ENSG00000153201_ENST00000283195|human|control|control (ssRNA)
RNA: GGGAGUUCUACAGUCCGACGAUCGAACAUUCCUUCAAAUCCACUCUUUGGAGCCUUGCUUAUCUCCGAAGAGGCAGGUGUUGAAAUUGCAGUUGUUUGAUUUUGUUUACUUGGACACUGACAAGCAAUACAUUUGGUAGCACUCAACAGAGGAUUGAGCAUCA
B9: 49110423_49110543_198_3pUTR_ENSG00000129315_ENST00000261900|human|control|control (ssRNA)
RNA: GGGAGUUCUACAGUCCGACGAUCCACCGUUUGUUGUUGUUCUUCCUCUCUCCCUCCAUAGUGCUUCAACCAGAAGGCAGCGGCGAAGGCUGCAGGCACUUCCCAGCGUCACCUAAGAGGCGACCCACAUCCGCUGUGCGGGGGCAACAGAGGAUUGAGCAUCA
B10: 21556573_21556693_1470_3pUTR_ENSMUSG00000021820_ENSMUST00000100837|mouse|control|control (ssRNA)
RNA: GGGAGUUCUACAGUCCGACGAUCGGUCUCCUCUGACUGACUGGUGCGAGGCCGACCCUGCCCGUCGAUGUACUGAGUGAGCCGGAUAUAGGCGAUGCAAGCUGCGUCCUCCCCAAUCACGUGGACGUGAGGGUUUAGGAUGGUCAACAGAGGAUUGAGCAUCA
B11: chr4:33332862:33332863:-_ENSMUSG00000040128_ENSMUST00000049357|mus_hu|motif|central (ssRNA)
RNA: GGGAGUUCUACAGUCCGACGAUCAUAUACAAAACACCUGCAAUGUGGGCAGGGCAAAAUACAUACUUUCAUAACAAAACGGUAAUAUACCUCUCAAGUAUGAACAAUAUACACAUAAUACAUGGUAUACAGUAUUUACAAAAUCAACAGAGGAUUGAGCAUCA
B12: chr1:39494564:39494565:+_ENSG00000168653_ENST00000372967|hu_hu|hu_hu_hu_mus_True|8_58 (ssRNA)
RNA: GGGAGUUCUACAGUCCGACGAUCAUGCAUUCGCCUCAUCGUUUUGUACCGAAGCAAGCACUCUUCGAAGUCAUCGAAUUCUAUCUUGCACUCCUUUUUCGCCCGGGUCCCACCGAUCCCGUGUGCACAUUCUAUCCACUCUUUCAACAGAGGAUUGAGCAUCA
B13: chr1:157179356:157179357:-_ENSMUSG00000026469_ENSMUST00000027741|perfect_dup|FALSE|FALSE (ssRNA)
RNA: GGGAGUUCUACAGUCCGACGAUCCAGGAUUAGACUGAGGUAGAACUCACUGAAGGCCAGUUUAAGGUCUUUAAUAUUUCUAUGUUGGACACGUUCCUCAUGGGACAAGUGGAAGACUGGCUUUCUGCGUUGUCGCAGCGUAGUCAACAGAGGAUUGAGCAUCA
B14: chr2:42509997:42509998:+_ENSG00000143924_ENST00000318522|hu_mus|motif|central (ssRNA)
RNA: GGGAGUUCUACAGUCCGACGAUCUCGCUGAGUCCUCUCCUCAUAAUUAAACAGGACUACCACUGAGGCGAUAAAAUAAACGGUCUCCCCUGUGGGAAGCAGGUAUACAUUCGCUCUACAGUCCUUUCCUCGAUAACCGUAUACCAACAGAGGAUUGAGCAUCA
B15: 93300168_93386495_452_CDS_ENSG00000113391_ENST00000395965|human|control|control (ssRNA)
RNA: GGGAGUUCUACAGUCCGACGAUCAGAUACUUUUUUCAAAUUACAAUCCUUUUCCAGGAGCUCAUAUACAUACUUCGUGAUGAUCUCUCCUAGAGCCUCGUAUCUUUUCUGGUUCCAUCUGUGUAAAUCUUCCCGGUAGUUAAACAACAGAGGAUUGAGCAUCA
B16: 49338038_49338158_210_CDS_ENSG00000011260_ENST00000225298|human|control|control (ssRNA)
RNA: GGGAGUUCUACAGUCCGACGAUCCCGUCUCUCUUCCUCCGCCGCCGCGACUGCAAUCGCAGCGGCCGCCGCGCUCGGCCGGGCCGGCGGUUUCCGCUGGGAUGAAGGGGCAGGCUUUUGGGGAGGCCCGCCUGGCCCCGCUCCCAACAGAGGAUUGAGCAUCA
B17: 124053616_124053736_143_ncRNA_ENSMUSG00000049550_ENSMUST00000125340|mouse|control|control (ssRNA)
RNA: GGGAGUUCUACAGUCCGACGAUCACUUGUGACUUCGUCCCGGGUUCUCCCCAGCUCCUCGGCAAGUUUGACGUUCUCUUCCUGCAGUGCUGAAAGCUGCUGGGACUUCUGAGCUGCUGCCUGCUUUAGGGUUUCUCUGAAAGGCAACAGAGGAUUGAGCAUCA
B18: chr2:32526493:32526494:+_ENSG00000119820_ENST00000437765|hu_mus|FALSE|FALSE (ssRNA)
RNA: GGGAGUUCUACAGUCCGACGAUCAGAUCCAACCACCAAAAGUAUAGGGGCUAUUACAAUGAGAGGAAGUAAUGAAUAUCCUAUAACUCCAAGAACUUGGCCAUAUGCAACUUCUCCACCAAGAACUCUAGCCAGUAAGAAAAUCAACAGAGGAUUGAGCAUCA
B19: chr13:6597965:6597966:-_ENSMUSG00000021196_ENSMUST00000144053|mus_hu|FALSE|FALSE (ssRNA)
RNA: GGGAGUUCUACAGUCCGACGAUCCAGCUCCAGGAGUCCCAGGUAGGCCUCGAAUCCACCGAUGAUCAGCAGCGCGUUGAUGCUGUGCGUGCGCAUCUGUGUGGCGAUCUCUUCCAAGUACUUCCCCGGGAGAACGCGUUUUGUCAACAGAGGAUUGAGCAUCA
B20: chr17:45747064:45747065:+_ENSG00000108424_ENST00000290158|hu_hu|hu_hu_hu_mus_True|28_38 (ssRNA)
RNA: GGGAGUUCUACAGUCCGACGAUCGCCCACAGUCCACGCUGUUGUGUCUCGAACAACUACACUGGGGUCUUUCAUUAGUUCUAUUAGGGUGGGCAUAGCCUGUAUAACUAGUGGUUUCAGUUGAUUAGGCUCUGGUCCUUCCAACAACAGAGGAUUGAGCAUCA
B21: chr20:57485947:57485948:+_ENSG00000087460_ENST00000306090|hu_mus|FALSE|FALSE (ssRNA)
RNA: GGGAGUUCUACAGUCCGACGAUCGGGGUUUUUCAGAAUCACUGGGGGAAAAAGGAAAGGUUGCGGUGUUGAUCAUGCCCUAUGGUGGGUGACCAACUGCUUGUACAAUUACGUUUCACUCUUAAUUAAUUGUGCUUAAGGCUGCAACAGAGGAUUGAGCAUCA
B22: chr12:93804944:93804945:-_ENSG00000177889_ENST00000549833|hu_hu|FALSE|FALSE (ssRNA)
RNA: GGGAGUUCUACAGUCCGACGAUCUCAUGAAACGUACUUUAGGGGCUGCCAUUGGGUAUUCUUCUGGAAGGAAUAGUUCAAGUUUAAAAGUCCCUCCCUCAAAGGGGGAAUCCUGAGGGCCAGCAAUGACCACAUGAAAAUAACCAACAGAGGAUUGAGCAUCA

What follows are binders tested against T1, UNK ZnF1-3 (human, UniProt Q9C0B0 31-174) (assay: nsRBNS (natural sequence RNA bind-n-seq); RBNS binding buffer (assumed for nsRBNS): 25 mM Tris pH 7.5, 150 mM KCl, 3 mM MgCl2, 0.01% Triton X-100, 500 ug/ml BSA, 20 U/ml SUPERase-In, 4 C; UNK is unkempt and MSI1 is Musashi-1; names of the RNAs are library labels; protein concentration not given here; high values mean tight binding).
T1 sequence: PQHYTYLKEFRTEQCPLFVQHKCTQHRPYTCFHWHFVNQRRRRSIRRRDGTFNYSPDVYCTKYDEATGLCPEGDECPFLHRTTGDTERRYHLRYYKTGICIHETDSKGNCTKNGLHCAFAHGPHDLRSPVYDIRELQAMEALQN

With B1 as the binder, how does the binding signal read?
Its binding signal is 0.979 enrichment R.

How did the binding signal turn out when B2 was run?
Its binding signal is 0.506 enrichment R.

For B3, which binding signal is on record?
Its binding signal is 1.48 enrichment R.

How did the binding signal turn out when B4 was run?
The binding signal was 0.781 enrichment R.

Which binding signal does the source give for B5 here?
The binding signal was 0.849 enrichment R.

Which binding signal does the source give for B6 here?
Its binding signal is 0.791 enrichment R.

B7 was tested. Which binding signal did it give?
Its binding signal is 1.16 enrichment R.

Which binding signal does the source give for B8 here?
Its binding signal is 0.718 enrichment R.

Which binding signal does the source give for B9 here?
The binding signal was 0.96 enrichment R.

Which binding signal does the source give for B10 here?
The binding signal was 0.622 enrichment R.

With B11 as the binder, how does the binding signal read?
The binding signal was 0.804 enrichment R.

For B12, which binding signal is on record?
Its binding signal is 0.586 enrichment R.

B13 was tested. Which binding signal did it give?
The binding signal was 0.819 enrichment R.

With B14 as the binder, how does the binding signal read?
Its binding signal is 1.17 enrichment R.

With B15 as the binder, how does the binding signal read?
The binding signal was 0.876 enrichment R.

With B16 as the binder, how does the binding signal read?
Its binding signal is 0.861 enrichment R.

With B17 as the binder, how does the binding signal read?
Its binding signal is 0.519 enrichment R.

How did the binding signal turn out when B18 was run?
Its binding signal is 1.9 enrichment R.

How did the binding signal turn out when B19 was run?
Its binding signal is 0.637 enrichment R.

For B20, which binding signal is on record?
The binding signal was 0.54 enrichment R.

For B21, which binding signal is on record?
Its binding signal is 0.933 enrichment R.

Which binding signal does the source give for B22 here?
Its binding signal is 1.08 enrichment R.
